# According to PubChem BioAssay AID504332 (National Center for Advancing Translational Sciences (NCATS), 2011):
# “And” between values parts separate entries of the source, which are not always exact repeats. Equal values may be shown once. The whole screen tested about 350,000 compounds, of which about 31,000 (8.9%) were called active. Inconclusive means that the source gave no clear call. Such entries were picked first, then a sample of the others. Calls come from the whole dose curve; as a rule, active = well fitted inhibition curve with a large enough effect; inconclusive = small, poorly fitted or top-dose-only effect; inactive = no such curve, though single readings can be large or run the other way. Potencies of inconclusive entries are doubtful fits and often do not repeat.
# Molecular target: Histone-lysine N-methyltransferase EHMT2 (Homo sapiens) (UniProt Q96KQ7)
# UniProt Q96KQ7, sequence (Q96KQ7 whole entry, looked up): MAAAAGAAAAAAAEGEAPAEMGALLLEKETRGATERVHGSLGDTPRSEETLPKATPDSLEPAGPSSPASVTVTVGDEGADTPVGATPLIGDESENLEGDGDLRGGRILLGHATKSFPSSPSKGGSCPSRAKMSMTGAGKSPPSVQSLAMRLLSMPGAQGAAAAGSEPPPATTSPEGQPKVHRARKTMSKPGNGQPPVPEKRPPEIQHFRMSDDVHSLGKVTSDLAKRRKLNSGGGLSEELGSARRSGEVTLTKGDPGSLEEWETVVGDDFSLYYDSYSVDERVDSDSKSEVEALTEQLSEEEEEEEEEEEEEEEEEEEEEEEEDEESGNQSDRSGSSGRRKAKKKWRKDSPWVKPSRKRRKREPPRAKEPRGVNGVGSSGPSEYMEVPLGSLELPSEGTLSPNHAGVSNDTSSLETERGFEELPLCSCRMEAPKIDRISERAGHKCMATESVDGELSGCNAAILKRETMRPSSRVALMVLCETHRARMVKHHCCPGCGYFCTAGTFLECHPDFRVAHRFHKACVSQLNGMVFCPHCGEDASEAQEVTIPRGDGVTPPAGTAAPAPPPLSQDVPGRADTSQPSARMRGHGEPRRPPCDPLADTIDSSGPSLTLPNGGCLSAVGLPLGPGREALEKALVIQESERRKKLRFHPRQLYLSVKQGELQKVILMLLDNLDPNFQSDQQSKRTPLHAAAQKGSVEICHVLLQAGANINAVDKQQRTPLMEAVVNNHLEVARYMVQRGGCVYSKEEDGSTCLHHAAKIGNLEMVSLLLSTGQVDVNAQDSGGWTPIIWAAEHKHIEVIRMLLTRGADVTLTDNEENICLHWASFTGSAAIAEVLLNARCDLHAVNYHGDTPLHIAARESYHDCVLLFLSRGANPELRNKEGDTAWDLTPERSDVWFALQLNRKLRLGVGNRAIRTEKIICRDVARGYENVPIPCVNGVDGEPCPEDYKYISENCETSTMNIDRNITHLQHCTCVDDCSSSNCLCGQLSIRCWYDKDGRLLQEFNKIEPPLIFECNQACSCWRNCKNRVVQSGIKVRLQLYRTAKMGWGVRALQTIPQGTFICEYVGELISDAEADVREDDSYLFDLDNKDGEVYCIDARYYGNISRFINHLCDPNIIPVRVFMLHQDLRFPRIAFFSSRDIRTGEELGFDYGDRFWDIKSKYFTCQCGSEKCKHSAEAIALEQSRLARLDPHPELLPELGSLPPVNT
# Experiment: qHTS Assay for Inhibitors of Histone Lysine Methyltransferase G9a; note: nearly all actives have a fitted effect of over 75% in size
# Settings: G9a H3K9 monomethylation, AlphaScreen, 2 h; activity, negative = inhibition: at 59 µM (top of the series) unless noted
# In short: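 Signal arises when biotinylated H3K9 peptide, once monomethylated, bridges streptavidin donor and antibody-captured acceptor beads. Enzyme at 20 nM was preincubated 15 min with test compounds; peptide 500 nM and SAM 20 uM then reacted for 2 h.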
# % is set by controls: 0 for no effect and ±100 for the full control effect; potency is the fitted concentration of half-maximal effect; tags give direction and shape of the fitted curve.
Compound,"activity, negative = inhibition",Potency
CCC12C(=O)C(CC)(C(c3ccccc3)=C1c1ccccc1)[C@@H]1C(=O)N(c3ccccc3)C(=O)C12 (stereo not given in full),inactive: 8.85%,
CCOc1cccc(C(=O)NC(=S)Nc2ccc(N3CCCC3)cc2)c1,inconclusive: -126% [inhibitor],
S=c1[nH]ncn1-c1ccccn1,,"inconclusive: 3.55 µM [inhibitor, single point]"
CCOc1ccc(C(=O)NCc2nc3cccnc3n2Cc2cccc(OC)c2)cc1,inactive: 20.5%,
COc1ccc2c(c1)c1nnc(SCC(=O)N3CCCCC3C)nc1n2C (stereo not given),,"inconclusive: 79.4 µM [inhibitor, single point]"
COc1cccc(Nc2cc(C)nc3nc(C)nn23)c1,,"inconclusive: 89.1 µM [inhibitor, single point]"
COc1ccccc1C(=O)NCC(=O)OCC(=O)Nc1ccc2[nH]c(=O)[nH]c2c1,,"inconclusive: 39.8 µM [inhibitor, partial curve]"
Cc1cccc(C(=O)c2c(N)sc3c2CCC(C)C3)c1 (stereo not given),,active: 44.7 µM
CCOc1ccccc1CNC(=O)c1ccc(NC(=O)N2CC(C)Sc3ccccc32)cc1 (stereo not given),inactive: 2.16%,
C=CCn1c(C)cc(C2=NNC(=NCC)SC2)c1C,,"inconclusive: 39.8 µM [inhibitor, single point]"
O=C(CCn1c(=O)[nH]c2ccccc2c1=O)N1CC=C(c2ccccc2)CC1,,"inconclusive: 44.7 µM [inhibitor, partial curve]"
O=C(CSc1nnc2ccccn12)N1CCc2ccccc2C1,,"inconclusive: 79.4 µM [inhibitor, single point]"
CC(C)(C)c1ccc(C(=O)Nc2ccccc2NC(=O)c2ccco2)cc1,,"inconclusive: 31.6 µM [inhibitor, single point]"
COc1ccc(CNCc2cc3c(cc2[N+](=O)[O-])OCO3)cc1,,active: 10 µM
C=CCCCCCCCCC(=O)O,inactive: 27.1%,
CCOc1ccc(C2=NNC(c3cccnc3)=Nc3ccc(OC)cc32)cc1,,"inconclusive: 44.7 µM [inhibitor, partial curve, poor fit]"
CCOc1ccccc1N(CC(=O)N/N=C(\C)c1cccc(Br)c1)S(C)(=O)=O,,"inconclusive: 35.5 µM [inhibitor, single point]"
CC(C)NC(=O)Cn1nnc(-c2cccc(NC(=O)c3ccccc3F)c2)n1,,"inconclusive: 89.1 µM [inhibitor, single point]"
O=C1N(Cc2cccc(Cl)c2)C[C@@H]2C[C@@H](c3cccn3-c3cccnc3)N3CCC[C@@]123,,active: 50.1 µM
CCOc1ccc(C2N(c3cc(Cl)ccc3OC)C(=O)C3CCCN32)cc1OC (stereo not given),,"inconclusive: 89.1 µM [inhibitor, single point]"
Cc1ccc(C(=O)NCC2CCCN2S(=O)(=O)c2cccs2)cc1C (stereo not given),inactive: -1.72% [at 102 µM],
Cc1ccc2nc(Nc3nc(CSc4nnc(C)s4)cc(=O)[nH]3)nc(C)c2c1,,"inconclusive: 35.5 µM [inhibitor, partial curve, poor fit]"
CCOC(=O)c1[nH]c(=O)[nH]c1CSc1ccccn1,,"inconclusive: 6.31 µM [inhibitor, single point]"

Compound,"activity, negative = inhibition",Potency
O=C(CSc1nnc(Nc2ccccc2F)s1)NC1CC1,inactive: -3.65% [at 12.7 µM],
CCCOc1ccc(-c2csc(NC(=O)CN3C(=O)CCC3=O)n2)cc1,inactive: -0.839%,
Cc1ccc(Cn2cc(CCC(=O)NC3CCC(C)CC3)c3ccccc32)cc1 (stereo not given),inactive: 1.01%,
CCOC(=O)N1CCC(=NNc2ccc(S(N)(=O)=O)cc2[N+](=O)[O-])CC1,,"inconclusive: 10 µM [inhibitor, partial curve, poor fit]"
CN1C/C(=C/c2ccncc2)C(=O)/C(=C/c2ccncc2)C1,,active: 50.1 µM
CC1CCN(S(=O)(=O)c2ccc(N=NC3=C(O)CC(C)(C)CC3=O)cc2)CC1,,"inconclusive: 100 µM [inhibitor, single point]"
Cc1nn(CC(=O)Nc2nnc(CC(=O)N3CCCC3)s2)c(=O)c2ccccc12,,active: 44.7 µM
CCc1ccc(OCC2c3cc(OC)c(OC)cc3CCN2C(C)=O)cc1 (stereo not given),inactive: -15.8% [at 102 µM],
Cc1ccnc(NC(=O)CCC(=O)N(CC(=O)NC2CCCCC2)c2ccc3c(c2)OCO3)c1,,"inconclusive: 28.2 µM [inhibitor, partial curve, poor fit]"
Cc1c(-n2c(=S)[nH]c3ccccc3c2=O)c(=O)n(-c2ccccc2)n1C,,"inconclusive: 89.1 µM [inhibitor, single point]"
Cc1c(Cl)cccc1NC(=S)NC1CC1,,"inconclusive: 25.1 µM [inhibitor, single point]"
CC(C)(C)c1nnc(N/N=C/c2cc(Br)ccc2O)n(N)c1=O,inactive: 4.91%,
COc1ccccc1CNS(=O)(=O)c1ccc2c(c1)NC(=O)C(C)C(=O)N2 (stereo not given),inactive: 4.23%,
NCCCC[C@@H](N)C(=O)O,inactive: 27.9%,
COc1ccc2nc(N3CCN(C(=O)C4COc5ccccc5O4)CC3)sc2c1 (stereo not given),,"inconclusive: 79.4 µM [inhibitor, partial curve, poor fit]"
CCOC(=O)c1sc(NC(=O)CSc2nc(C)cc(C)c2C#N)c(C#N)c1C,,"inconclusive: 6.31 µM [inhibitor, single point]"
Cc1c(OCc2ccc(C(=O)O)o2)ccc2c3c(c(=O)oc12)CCC3,,"inconclusive: 28.2 µM [inhibitor, single point]"
Cc1ccc2c(c1)c1c3n2CCN(C(=O)Cn2c(-c4ccccc4)noc2=O)C3CCC1 (stereo not given),inactive: -11% [at 102 µM],
COC(=O)c1ccccc1NC(=O)Cn1c(CCC(=O)O)ccc1-c1cccs1,,"inconclusive: 35.5 µM [inhibitor, single point] and inconclusive: 28.2 µM [inhibitor, single point]"
O=C(O)c1cccc(S(=O)(=O)NNc2ccccc2C(F)(F)F)c1,,active: 1.41 µM
COc1ccc(NC(=S)N2CCN(C/C=C/c3ccccc3)CC2)cc1,,"inconclusive: 79.4 µM [inhibitor, single point]"
COCc1nnc(NC(=O)c2ccc(S(=O)(=O)N(C)C3CCCCC3)cc2)o1,,"inconclusive: 89.1 µM [inhibitor, partial curve, poor fit]"
